# Assay results taken from the supplement of paper PMC8728848.
# This is one part of the list.
# Assays:
# Assay in all cases: glycan array binding signal (z-score within array); higher = stronger binding
# Conditions in all cases: glycan notation: IUPAC condensed, linker removed
# [1] = biological target: GalNAc(b1-4)GlcNAc(b1-2)Man
# Procedure, shortened: (§1)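 Arrays were curated from the Consortium for Functional Glycomics database, 3228 in total, and kept only where the protein sequence was available. Binding is expressed as a within-array Z-score. This score was averaged across arrays of the same protein sequence at different concentrations or buffers and across linkers, and negative values can be read as non-binding.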
# [2] = biological target: GalNAc(b1-4)GlcNAc(b1-2)Man(a1-3)[GalNAc(b1-4)GlcNAc(b1-2)Man(a1-6)]Man(b1-4)GlcNAc(b1-4)GlcNAc
# Procedure, shortened: as §1
# [3] = biological target: GalNAc(b1-4)GlcNAc(b1-3)GalNAc(b1-4)GlcNAc
# Procedure, shortened: as §1
# GalNAc(b1-4)GlcNAc6S = biological target: GalNAc(b1-4)GlcNAc6S
# Procedure, shortened: as §1
# GalNAc(b1-6)GalNAc = biological target: GalNAc(b1-6)GalNAc
# Procedure, shortened: as §1
# GalNAc3S(b1-4)GlcNAc = biological target: GalNAc3S(b1-4)GlcNAc
# Procedure, shortened: as §1
# GalNAc3S(b1-4)GlcNAc3S = biological target: GalNAc3S(b1-4)GlcNAc3S
# Procedure, shortened: as §1
# [4] = biological target: GalNAc3S(b1-4)[Fuc(a1-3)]GlcNAc
# Procedure, shortened: as §1
# GalNAc4S6S(b1-4)GlcNAc = biological target: GalNAc4S6S(b1-4)GlcNAc
# Procedure, shortened: as §1
# GalNAc6S(b1-4)GlcNAc = biological target: GalNAc6S(b1-4)GlcNAc
# Procedure, shortened: as §1
# Glc(a1-4)Glc = biological target: Glc(a1-4)Glc
# Procedure, shortened: as §1
# [5] = biological target: Glc(a1-4)Glc(a1-4)Glc(a1-4)Glc
# Procedure, shortened: as §1
# Glc(a1-6)Glc(a1-6)Glc = biological target: Glc(a1-6)Glc(a1-6)Glc
# Procedure, shortened: as §1
# [6] = biological target: Glc(a1-6)Glc(a1-6)Glc(a1-6)Glc
# Procedure, shortened: as §1
# Glc(b1-4)Glc = biological target: Glc(b1-4)Glc
# Procedure, shortened: as §1
# Glc(b1-6)Glc = biological target: Glc(b1-6)Glc
# Procedure, shortened: as §1
# GlcA(b1-3)Gal = biological target: GlcA(b1-3)Gal
# Procedure, shortened: as §1
# GlcA(b1-3)GlcNAc = biological target: GlcA(b1-3)GlcNAc
# Procedure, shortened: as §1
# GlcA(b1-6)Gal = biological target: GlcA(b1-6)Gal
# Procedure, shortened: as §1
# [7] = biological target: GlcA3S(b1-3)Gal(b1-4)GlcNAc(b1-2)Man
# Procedure, shortened: as §1
# [8] = biological target: GlcA3S(b1-3)Gal(b1-4)GlcNAc(b1-3)Gal(b1-4)Glc
# Procedure, shortened: as §1
# [9] = biological target: GlcNAc(a1-3)Gal(b1-4)GlcNAc
# Procedure, shortened: as §1
# [10] = biological target: GlcNAc(a1-4)Gal(b1-3)GlcNAc
# Procedure, shortened: as §1
# [11] = biological target: GlcNAc(a1-4)Gal(b1-4)GalNAc
# Procedure, shortened: as §1
# [12] = biological target: GlcNAc(a1-4)Gal(b1-4)GlcNAc
# Procedure, shortened: as §1
# [13] = biological target: GlcNAc(a1-4)Gal(b1-4)GlcNAc(b1-3)Gal(b1-4)Glc
# Procedure, shortened: as §1
# [14] = biological target: GlcNAc(a1-4)Gal(b1-4)GlcNAc(b1-3)Gal(b1-4)GlcNAc
# Procedure, shortened: as §1
# [15] = biological target: GlcNAc(a1-4)Gal(b1-4)GlcNAc(b1-3)Gal(b1-4)GlcNAc(b1-3)Gal(b1-4)GlcNAc
# Procedure, shortened: as §1
# [16] = biological target: GlcNAc(a1-4)Gal(b1-4)GlcNAc(b1-3)Gal(b1-4)[Fuc(a1-3)]GlcNAc(b1-3)Gal(b1-4)[Fuc(a1-3)]GlcNAc
# Procedure, shortened: as §1
# [17] = biological target: GlcNAc(a1-6)Gal(b1-4)GlcNAc
# Procedure, shortened: as §1
# [18] = biological target: GlcNAc(b1-2)Gal(b1-3)GalNAc
# Procedure, shortened: as §1
# [19] = biological target: GlcNAc(b1-2)Man(a1-3)[GlcNAc(b1-2)Man(a1-6)]Man(b1-4)GlcNAc(b1-4)GlcNAc
# Procedure, shortened: as §1
# [20] = biological target: GlcNAc(b1-2)Man(a1-3)[GlcNAc(b1-2)Man(a1-6)]Man(b1-4)GlcNAc(b1-4)[Fuc(a1-6)]GlcNAc
# Procedure, shortened: as §1
# [21] = biological target: GlcNAc(b1-2)Man(a1-3)[GlcNAc(b1-4)][GlcNAc(b1-2)Man(a1-6)]Man(b1-4)GlcNAc(b1-4)GlcNAc
# Procedure, shortened: as §1
# [22] = biological target: GlcNAc(b1-2)Man(a1-3)[GlcNAc(b1-4)][GlcNAc(b1-2)Man(a1-6)]Man(b1-4)GlcNAc(b1-4)[Fuc(a1-6)]GlcNAc
# Procedure, shortened: as §1
# [23] = biological target: GlcNAc(b1-2)[GlcNAc(b1-4)]Man(a1-3)[GlcNAc(b1-2)Man(a1-6)]Man(b1-4)GlcNAc(b1-4)GlcNAc
# Procedure, shortened: as §1
# [24] = biological target: GlcNAc(b1-2)[GlcNAc(b1-4)]Man(a1-3)[GlcNAc(b1-4)][GlcNAc(b1-2)Man(a1-6)]Man(b1-4)GlcNAc(b1-4)GlcNAc
# Procedure, shortened: as §1
binder,measurement,setting,value
Cohesin-hMARCO (Homo sapiens) (protein) LDDLDAVRIKVDTVNAKPGDTVRIPVRFSGIPSKGIANCDFVYSYDPNVLEIIEIEPGDIIVDPNPDKSFDTAVYPDRKIIVFLFAEDSGTGAYAITKDGVFATIVAKVKEGAPNGLSVIKFVEVGGFANNDLVEQKTQFFDGGANVGDTTEPATPTTPVTTPTTTDDLDAASVRIVGSSNRGRAEVYYSGTWGTICDDEWQNSDAIVFCRMLGYSKGRALYKVGAGTGQIWLDNVQCRGTESTLWSCTKNSWGHHDCSHEEDAGVECSVHHHHHH,glycan array binding signal (z-score),[1],1.08
same,glycan array binding signal (z-score),[2],-0.251
same,glycan array binding signal (z-score),[3],0.209
same,glycan array binding signal (z-score),GalNAc(b1-4)GlcNAc6S,-0.101
same,glycan array binding signal (z-score),GalNAc(b1-6)GalNAc,-0.405
same,glycan array binding signal (z-score),GalNAc3S(b1-4)GlcNAc,-0.538
same,glycan array binding signal (z-score),GalNAc3S(b1-4)GlcNAc3S,-0.315
same,glycan array binding signal (z-score),[4],-0.274
same,glycan array binding signal (z-score),GalNAc4S6S(b1-4)GlcNAc,-0.303
same,glycan array binding signal (z-score),GalNAc6S(b1-4)GlcNAc,1.1
same,glycan array binding signal (z-score),Glc(a1-4)Glc,-0.037
same,glycan array binding signal (z-score),[5],-0.469
same,glycan array binding signal (z-score),Glc(a1-6)Glc(a1-6)Glc,-0.237
same,glycan array binding signal (z-score),[6],-0.553
same,glycan array binding signal (z-score),Glc(b1-4)Glc,-0.114
same,glycan array binding signal (z-score),Glc(b1-6)Glc,0.787
same,glycan array binding signal (z-score),GlcA(b1-3)Gal,-0.351
same,glycan array binding signal (z-score),GlcA(b1-3)GlcNAc,-0.363
same,glycan array binding signal (z-score),GlcA(b1-6)Gal,-0.166
same,glycan array binding signal (z-score),[7],-0.338
same,glycan array binding signal (z-score),[8],0.032
same,glycan array binding signal (z-score),[9],-0.466
same,glycan array binding signal (z-score),[10],-0.354
same,glycan array binding signal (z-score),[11],-0.39
same,glycan array binding signal (z-score),[12],-0.282
same,glycan array binding signal (z-score),[13],0.094
same,glycan array binding signal (z-score),[14],-0.328
same,glycan array binding signal (z-score),[15],-0.51
same,glycan array binding signal (z-score),[16],-0.104
same,glycan array binding signal (z-score),[17],-0.236
same,glycan array binding signal (z-score),[18],-0.478
same,glycan array binding signal (z-score),[19],-0.381
same,glycan array binding signal (z-score),[20],-0.111
same,glycan array binding signal (z-score),[21],-0.51
same,glycan array binding signal (z-score),[22],0.119
same,glycan array binding signal (z-score),[23],-0.197
same,glycan array binding signal (z-score),[24],-0.307
